± gives the uncertainty stated by the source. Shown are siRNA guide strands that differ only in the seed, positions 2 to 7.
Tests used:
H460 = assay: cell viability relative to lipid-only control; higher = less toxic; settings: concentration: 10 nM; 96 h; Homo sapiens
HeyA8 = assay: as above; settings: concentration: 10 nM; 96 h; Homo sapiens
M565 = assay: as above; settings: concentration: 10 nM; 96 h; Mus musculus
3LL = assay: cell viability relative to siNT1 control; HeyA8 human ovarian and H460 human lung cancer; M565 mouse liver and 3LL mouse lung cancer; siNT1 is a non-toxic control siRNA; higher = less toxic; settings: concentration: 10 nM; 96 h; Mus musculus
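For cell viability relative to lipid-only control in this document: reverse lipid transfection in 384-well plates, in triplicate, of duplexes on a non-toxic 19mer backbone with passenger strand 2′-O-methylated at positions 1 and 2, luminescence viability read-out.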
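For cell viability relative to siNT1 control in this document: Luminescence-based viability of cells reverse transfected in 384-well plates with lipid-complexed siRNAs built on a non-toxic 19mer backbone whose passenger strand carries 2′-O-methyl groups at positions 1 and 2, triplicates.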

Row | Sequence | cell viability (H460) [%] | cell viability (HeyA8) [%] | cell viability (M565) [%] | cell viability (3LL) [%]
1 | UGAUUGCACAUGUAAACCAAA | 56.2 ± 6.6 | 22 ± 2.4 | 54.8 ± 6.1 | 49.9 ± 4.4
2 | UGAUUGGACAUGUAAACCAAA | 46.8 ± 6.8 | 40.8 ± 5.4 | 47.2 ± 6.3 | 28.1 ± 6
3 | UGAUUGUACAUGUAAACCAAA | 60.6 ± 17 | 36.6 ± 4.7 | 96.5 ± 4.9 | 94.8 ± 19
4 | UGAUUUCACAUGUAAACCAAA | 43.8 ± 3.8 | 28.2 ± 1.3 | 6.34 ± 3 | 12.2 ± 0.51
5 | UGAUUUGACAUGUAAACCAAA | 63.3 ± 7.9 | 49.3 ± 2.2 | 58.2 ± 3.4 | 60 ± 10
6 | UGAUUUUACAUGUAAACCAAA | 52.8 ± 5.9 | 50.5 ± 5.6 | 45 ± 11 | 39.2 ± 3.7
7 | UGCAAAAACAUGUAAACCAAA | 67 ± 4.3 | 92.7 ± 15 | 87.9 ± 11 | 88.3 ± 9.4
8 | UGCAAACACAUGUAAACCAAA | 56.6 ± 4.5 | 63.3 ± 4.7 | 91.4 ± 7.3 | 65.7 ± 11
9 | UGCAAAGACAUGUAAACCAAA | 59.2 ± 5.8 | 79.2 ± 7 | 87.5 ± 1 | 84.1 ± 5.4
10 | UGCAAAUACAUGUAAACCAAA | 60.9 ± 2.5 | 45.6 ± 5.4 | 77.5 ± 8.8 | 74.7 ± 3.9
11 | UGCAACAACAUGUAAACCAAA | 65 ± 6.8 | 70.3 ± 4.1 | 70.3 ± 17 | 85.1 ± 7.2
12 | UGCAACCACAUGUAAACCAAA | 37.9 ± 3.1 | 14.9 ± 1.5 | 23.4 ± 2.9 | 34.8 ± 5.2
13 | UGCAACGACAUGUAAACCAAA | 65.4 ± 6 | 63 ± 5.1 | 43 ± 1.2 | 90.8 ± 20
14 | UGCAACUACAUGUAAACCAAA | 44.4 ± 4 | 46.3 ± 2.7 | 31.4 ± 13 | 9.16 ± 4.3
15 | UGCAAGAACAUGUAAACCAAA | 77 ± 11 | 90.4 ± 6.3 | 52.3 ± 2.9 | 55.9 ± 9.3
16 | UGCAAGCACAUGUAAACCAAA | 64.4 ± 2.4 | 70.9 ± 2.4 | 14.3 ± 1.3 | 14.9 ± 7.1
17 | UGCAAGGACAUGUAAACCAAA | 64.2 ± 8.4 | 56.7 ± 12 | 19.2 ± 1.5 | 45.9 ± 9.8
18 | UGCAAGUACAUGUAAACCAAA | 67.8 ± 3.1 | 80.3 ± 9.1 | 42.5 ± 6.2 | 22.1 ± 7.4
19 | UGCAAUAACAUGUAAACCAAA | 72.4 ± 6.1 | 74.2 ± 23 | 98.9 ± 11 | 82.7 ± 17
20 | UGCAAUCACAUGUAAACCAAA | 59.6 ± 8.4 | 50.2 ± 3.1 | 51.5 ± 3.2 | 61 ± 1.7
21 | UGCAAUGACAUGUAAACCAAA | 81.4 ± 19 | 60.2 ± 6 | 82.3 ± 2.6 | 90.2 ± 13
22 | UGCAAUUACAUGUAAACCAAA | 63.6 ± 5.8 | 54 ± 1.8 | 56.6 ± 6.8 | 68.9 ± 16
23 | UGCACAAACAUGUAAACCAAA | 70 ± 9.1 | 77.4 ± 3 | 57.9 ± 2.3 | 65.9 ± 12
24 | UGCACACACAUGUAAACCAAA | 48.5 ± 1.3 | 24.9 ± 0.51 | 29.3 ± 2.7 | 52.5 ± 8.2
25 | UGCACAGACAUGUAAACCAAA | 52.9 ± 6.8 | 69.7 ± 5.1 | 52.9 ± 14 | 51.8 ± 12
26 | UGCACAUACAUGUAAACCAAA | 58.2 ± 10 | 60.7 ± 12 | 45.6 ± 4.9 | 83.2 ± 15
27 | UGCACCAACAUGUAAACCAAA | 52 ± 5.8 | 59.6 ± 2.6 | 50.2 ± 1.8 | 60.8 ± 10
28 | UGCACCCACAUGUAAACCAAA | 35.4 ± 2.6 | 13.3 ± 1.1 | 14.3 ± 10 | 8.83 ± 1.5
29 | UGCACCGACAUGUAAACCAAA | 69.5 ± 12 | 62.1 ± 5.4 | 54.6 ± 5.2 | 71.5 ± 9.1
30 | UGCACCUACAUGUAAACCAAA | 71.7 ± 12 | 64.4 ± 4.2 | 48.8 ± 1.9 | 59 ± 3
